# Measurements reported in the supplement of paper PMC11417369.
# ± gives the standard deviation of the averaged measurements. Some of the results follow.
# System: PfAP2-LT AP2 domain (GST-tagged)
# Assay: gcPBM binding intensity (ln(normalized median fluorescence intensity)); higher = stronger DNA binding
# Summary of the method: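 Binding intensity is defined as the maximum Masliner-normalised natural-log median intensity across replicate spots for either probe orientation. It was measured on an Agilent 4 × 180k array of primer-extended double-stranded 36-bp intergenic genomic probes and negative controls, to which GST-tagged P. falciparum DNA-binding domains made in E. coli were applied for 1 h in 1× PBS with 1% milk, 0.2 mg/ml BSA, 0.5% salmon testes DNA and 0.03% Triton X-100. Detection was by Alexa488 anti-GST antibody and scanning at 488 nm.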
row,Sequence,gcPBM binding intensity (ln)
1,TTTTTGTTATTTTTAGTGCAGAAGAATAAATTTTAA,8.11 ± 0.39
2,TTTTTATTGTTGCTATATTTATAACAATTTATCATA [GTGCAC_negctrl_site75],8.64 ± 0.49
3,TTCAATAGTAAGTATACACACATATAAATAAATAAA [CACACA_site7295],8.98 ± 0.48
4,AAAAAAAAAATATATTGTACAATATTGTAGCTATAT [XGTACX_site7180],8.85 ± 0.46
5,TATATATATGGACACACACACATATATATATATTTT [CACACA_site5409],9.67 ± 0.23
6,TATATATAATATAGTGCATGTAAAAAATAAACCATG [TGCATGCA_site932],8.84 ± 0.43
7,TATCTTACTTTTTGCACACACTAATATTATTGTTTA [CACACA_site4990],9.56 ± 0.31
8,TATAAATTAAAACATTGTACATTTTTATTATTATGT [XGTACX_site579],8.64 ± 0.43
9,AAAATTAATATCTTGGTGCATTTTTTAATATTATTA [GTGCAC_site9638],8.57 ± 0.47
10,ACAACTATTCATCATAGTACACGCATGATATATATA [XGTACX_site1539],8.94 ± 0.4
11,CAATTTATAAAGAAAACACACATATACATAAATACA [CACACA_site4829],8.96 ± 0.4
12,ACATTATAATATTATTGTACTATATATATAATATAT [XGTACX_site2291],8.76 ± 0.33
13,ATATAATAACATAACACACACATGTATTTATAGGTG [CACACA_site359],9.38 ± 0.3
14,AAAAAAAAAAAAAAAACACACATATATATATAATAT [CACACA_site1159],8.96 ± 0.42
15,GATAATCAGAATGGGGTGCAAAGAAAAAAAAAAAAA,8.8 ± 0.61
16,TCTATTTATATGTATTGTACAATATAGATGTGTATT [XGTACX_site5646],9.01 ± 0.39
17,CCTAAATAATATCTATCACACACGCATATATACATA [CACACA_site8838],9.16 ± 0.35
18,TTATATTTATATTTATGTACATATTTTGTGTGAAAA [XGTACX_site2367],8.74 ± 0.37
19,AAATTAAAAATAATTACACACATAGAAAAATTATAT [CACACA_site2275],8.9 ± 0.45
20,GTAATACACAGACACACACACATACACATATTTATA [CACACA_site7313],9.91 ± 0.39
21,TAGCTGTTCAAAAAATGTACATATATAATATATATA [XGTACX_site5842],8.54 ± 0.38
22,ATATATATGCATTCAAGTACAAAAATATATGTTAAA [XGTACX_site910],8.88 ± 0.4
23,AGTGTATATAGAAACATACACACATATTAATTTTAC [CACACA_site3127],8.99 ± 0.38
24,TTCTATATATAATATTGTACTTAATTATTTTATTTT [XGTACX_site2701],8.72 ± 0.43
25,TACACAAACGTTATACGTACACAGGTTTTTCTTTTA [XGTACX_site5427],8.71 ± 0.49
